Results reported in PubChem BioAssay (NCATS).
Values joined by “and” are separate entries in the source; they are usually repeats but may differ in a detail not shown here. Identical values can stand only once. The shares of active, inactive and inconclusive entries below differ from those in the screen. Where the call is inconclusive, the potency comes from a doubtful curve fit. Active and inactive are the calls of the source. Calls come from the whole dose curve; as a rule, active = well fitted cell-killing curve with a large enough effect; inconclusive = small, poorly fitted or top-dose-only effect; inactive = flat fitted curve, though single readings scatter.

Experiment: Cellular viability qHTS for adrenocortical cancer (ACC) cell line NCI-H295R (AID 1963990); note: nearly all actives have a fitted effect of over 60% in size
Conditions: CellTiter-Glo ATP luminescence, 48 h; series mostly up to 46.1 µM
Excerpt: PI: Naris Nilubol, MD Surgical Oncology Program, National Cancer Institute (NCI) National Institute of Health (NIH), Bethesda, Maryland Adrenocortical cancer (ACC) is a rare malignancy with poor survival outcomes and few treatment options. Currently, mitotane is the only FDA-approved therapy for ACC. Although adjuvant radiation therapy is rarely utilized, it has the potential to improve survival in select cases. Through a quantitative high-throughput drug screen (qHTS), we identified auranofin (AF), a thioredoxin reductase (TXNRD) inhibitor, as a promising candidate drug. This study aims to evaluate whether AF can enhance the efficacy of radiation therapy in the treatment of ACC. Two human ACC cell lines, SW-13 and NCI-H295R, were screened using the National Center for Advancing Translational Sciences (NCATS) Pharmaceutical Collection (NPC) and the Mechanism Interrogation PlatE (MIPE) library (~4,991 compounds). CellTiter-Glo (Cat # G7570, Promega, Madison, WI) was utilized to measure cell viability. Described herein are the results of the corresponding viability assay.
PROTOCOL TABLE (as described by Inglese J, Shamu CE and Guy RK. 2007) SEQUENCE No. (e.g., 1, 2, 3, etc.); […] (e.g., Cells, Incubation, Reagent, etc.); VALUE; DESCRIPTION. 1; Cells; 5 uL; white, solid-bottom, 1536-well tissue-culture treated plates. 2; Time; overnight culture at 37C with 5% CO2. 3; Compounds and control; 23 nL; Kalypsis pin tool (Wako USA) equipped with a 1536-well pin head to transfer to the assay plates. 4; Time; 48 hours; 37C with 5% CO2. 5; Reagent; 4 uL; CellTiter-Glo luminescent substrate mix. 6; Time; 20 min at room temperature. 7; Detection; Luminescence; ViewLux plate reader NOTES (numbers refer to Sequence numbers above) 1. NCI-H295R cells were harvested from a T175 flask and resuspended in ITS-supplemented DMEM serum-free medium at a concentration of 300 000 cells/mL. Then 5 uL of resuspended cells were dispensed into each well of white, solid-bottom, 1536-well tissue-culture-treated plates using a multidrop combi dispenser. The plates were covered with stainless steel gasket lids. 2-3. The plates were cultured overnight at 37C with 5% CO2. Twenty-three nL of compounds (eight selected concentrations from the NPC / MIPE) or positive control (10 mM stock of bortezomib) in DMSO was transferred to each well of the assay plate using a pin tool (Kalypsys, San Diego, CA, USA). The final concentration of the compounds in the 5 uL assay volume ranged from 0.5 nM to 46 uM. 4-6. After 48 hours of incubation at 37C and 5% CO2, 4 uL of CellTilter-Glo luminescent substrate mix (Promega, Madison, WI, USA) was added to each well. Then the plates were incubated for 20 minutes at room temperature. 7. After incubation, luminescence was measured using a ViewLux plate reader (PerkinElmer, Waltham, MA, USA) with a clear filter was used to measure the number of metabolically competent cells. To determine compound activity in the qHTS assay, the titration-response data for each sample was plotted and modeled by a four-parameter logistic fit yielding IC50 and efficacy (maximal response) values. Raw plate reads for each titration point were normalized relative to positive control ([…], 100% inhibition) and DMSO-only wells (basal, 0%). REFERENCES: Inglese J, Shamu CE and Guy RK, Reporting data from high throughput screening of small molecule libraries, Nature Chemical Biology, 2007, 3(8): 438-441. doi.org/10.1038/nchembio0807-438.
Tags give direction and shape of the fitted curve.

Structure (SMILES)	Potency
CCC1=C[C@@H]2CN(C1)Cc1c([nH]c3ccccc13)[C@@](C(=O)OC)(c1cc3c(cc1OC)N(C)[C@H]1[C@@](O)(C(=O)OC)[C@H](OC(C)=O)[C@]4(CC)C=CCN5CC[C@]31[C@@H]54)C2	active: 20.6 nM and active: 2.54 µM
C[C@@H]1CCN(C(=O)[C@H](CCCN=C(N)N)NS(=O)(=O)c2cccc3c2NC[C@H](C)C3)[C@@H](C(=O)O)C1	inactive
CC1CC(=O)NN=C1c1ccc(NCC(C)(C)NCC(O)COc2cc(Cl)ccc2C#N)cc1 (stereo not given)	inconclusive: 10.3 µM [cytotoxic, partial curve]
COc1cc2nc(N3CCN(C(=O)c4ccco4)CC3)nc(N)c2cc1OC	inconclusive: 15.9 µM [cytotoxic, single point]
CCN(C)S(=O)(=O)Nc1ccc(F)c(C(=O)c2c[nH]c3ncc(-c4cnc(C5CC5)nc4)cc23)c1F	active: 28.2 µM
CC(C)(C)CC(=O)OCC(=O)[C@@]1(O)CC[C@H]2[C@@H]3CCC4=CC(=O)C=C[C@]4(C)[C@H]3[C@@H](O)C[C@@]21C	inconclusive: 29.1 µM [cytotoxic, single point]
CCCCCCCCCCCCCC[N+](C)(C)Cc1ccccc1	inconclusive: 29.1 µM [cytotoxic, single point]
CCS(=O)(=O)N1CC(CC#N)(n2cc(-c3ncnc4[nH]ccc34)cn2)C1	inconclusive: 28.2 µM [cytotoxic, partial curve, poor fit]
C=C1C[C@@]2(O)O[C@@]3(C[C@H]2C(C)C)[C@@H](C)CC[C@@H]13	inactive
O=C1NC2CCCCN2C12CCN(CCCN1c3ccccc3CCc3ccc(Cl)cc31)CC2 (stereo not given)	inconclusive: 29.1 µM [cytotoxic, single point]
NC(N)=N/N=C/c1c(Cl)cccc1Cl	inconclusive: 29.1 µM [cytotoxic, single point]
O=c1c(-c2ccc(O)cc2)coc2c([C@@H]3O[C@H](CO)[C@@H](O)[C@H](O)[C@H]3O)c(O)ccc12	inactive
O=C1c2ccccc2C(=O)c2c1ccc(O)c2O	inconclusive: 14.6 µM [cytotoxic, partial curve, poor fit]
CCCCCOc1ccc(C2SC(=O)NC2=O)cc1OCC (stereo not given)	inconclusive: 13 µM [cytotoxic, partial curve]
Cc1ccc(-n2[nH]c(C)c(N=Nc3cccc(-c4cccc(C(=O)O)c4)c3O)c2=O)cc1C	inconclusive: 29.1 µM [cytotoxic, single point] and inconclusive: 11.2 µM [cytotoxic, single point]
CCCc1nc2c(C)cc(-c3nc4ccccc4n3C)cc2n1Cc1ccc(-c2ccccc2C(=O)O)cc1	inconclusive: 4.61 µM [cytotoxic, partial curve]
COc1ccc(CNc2nc(N(CCO)CCO)nc3c2ncn3C(C)C)cc1	active: 15.8 µM
CN1CCC(=C2c3ccccc3Sc3ccccc32)CC1	active: 8.2 µM
O=c1cc(-c2ccc(O)cc2)oc2cc(O)cc(O)c12	inactive
CCCCCCCCNC(C)C(O)c1ccc(SC(C)C)cc1 (stereo not given)	inconclusive: 23.1 µM [cytotoxic, single point]

Structure (SMILES)	Potency
C[C@H](NC(CCc1ccccc1)C(=O)O)C(=O)N1CCC[C@H]1C(=O)O (stereo not given in full)	inactive
CCn1nnc2c(N3CCOCC3)nc(-c3ccc(NC(=O)Nc4ccc(C(=O)N5CCN(C)CC5)cc4)cc3)nc21	inactive
O=C(NC[C@H](O)CO)c1ccncc1Nc1ccc(I)cc1F	active: 31.6 µM
Cc1cc(-c2cnn3c(NCC4CC(C)(O)C4)cc(Oc4cccnc4)nc23)ccc1C(=O)NC1CC1 (stereo not given)	inconclusive: 0.583 µM [cytotoxic, partial curve, poor fit]
CN1CC[C@@H](c2c(O)cc(O)c3c(=O)cc(-c4ccccc4Cl)oc23)[C@@H](O)C1	active: 1.26 µM
O=c1[nH]c(=O)n(C2CCCO2)cc1F (stereo not given)	inactive
CN(C(=O)CNC(=O)/C=C/c1cccc(Cl)c1)C1CCS(=O)(=O)CC1	inconclusive: 35.5 µM [cytotoxic, single point]
CCCCCC(=O)O[C@]1(C(C)=O)CC[C@H]2[C@@H]3CCC4=CC(=O)CC[C@]4(C)[C@H]3CC[C@@]21C	inconclusive: 18.4 µM [cytotoxic, single point]
CN(C)CCCN1c2ccccc2CCc2ccccc21	inconclusive: 29.1 µM [cytotoxic, single point]
Cc1[nH]nc2ccc(-c3cncc(OC[C@@H](N)Cc4ccccc4)c3)cc12	inconclusive: 2.24 µM [cytotoxic, full curve, poor fit]
CC1CNc2c(cccc2S(=O)(=O)N[C@@H](CCCN=C(N)N)C(=O)N2CC[C@@H](C)C[C@@H]2C(=O)O)C1 (stereo not given in full)	inactive
CONC(=O)c1ccccc1Nc1cc(Nc2cc(C)nn2C(C)C)ncc1Cl	inconclusive: 35.5 µM [cytotoxic, single point]
CCn1cc(C(=O)O)c(=O)c2cc(F)c(N3CCNCC3)cc21	inactive
O=C1C(CCS(=O)c2ccccc2)C(=O)N(c2ccccc2)N1c1ccccc1 (stereo not given)	inconclusive: 29.1 µM [cytotoxic, single point]
CC[C@]12CCCN3CCc4c(n(c5ccccc45)C(=O)C1)[C@@H]32	active: 5.8 µM
Cn1cc(-c2ccc(-c3cncc(Cl)c3N3CCC4(CCNC4=O)CC3)cc2)cn1	inactive
CN(C)[C@@H](CCOc1cccc2ccccc12)c1ccccc1	inconclusive: 29.1 µM [cytotoxic, single point]
COc1c(N2C[C@@H]3CCCN[C@H]3C2)c(F)cc2c(=O)c(C(=O)O)cn(C3CC3)c12	inconclusive: 17.8 µM [cytotoxic, partial curve, poor fit]
COC(=O)Nc1nc2ccc(C(=O)c3ccccc3)cc2[nH]1	active: 103 nM and active: 141 nM
CCc1cc(-c2n[nH]c(C)c2-c2ccc3c(c2)OCCO3)c(O)cc1O	active: 15.8 µM
